According to PubChem BioAssay AID1030 (National Center for Advancing Translational Sciences (NCATS), 2008):
Screen size: about 220,000 compounds; about 16,000 (7.3%) were called active. The inconclusive results got no clear call from the source; some entries with a clear call stand among them for comparison. Calls come from the whole dose curve; as a rule, active = well fitted inhibition curve with a large enough effect (not every such curve was filed as active); inconclusive = small, poorly fitted or top-dose-only effect, or another doubt; inactive = no such curve, though single readings can be large or run the other way. Potencies of inconclusive entries are left out as doubtful fits.

Target: Aldehyde dehydrogenase 1A1 (Homo sapiens) (UniProt P00352)
Test: qHTS Assay for Inhibitors of Aldehyde Dehydrogenase 1 (ALDH1A1)
Details: Purified ALDH1A1, NADH fluorescence, propionaldehyde substrate; series mostly up to 75.3 µM
Potency is the fitted concentration of half-maximal effect; tags give direction and shape of the fitted curve.

UniProt P00352, sequence (P00352 whole entry, looked up): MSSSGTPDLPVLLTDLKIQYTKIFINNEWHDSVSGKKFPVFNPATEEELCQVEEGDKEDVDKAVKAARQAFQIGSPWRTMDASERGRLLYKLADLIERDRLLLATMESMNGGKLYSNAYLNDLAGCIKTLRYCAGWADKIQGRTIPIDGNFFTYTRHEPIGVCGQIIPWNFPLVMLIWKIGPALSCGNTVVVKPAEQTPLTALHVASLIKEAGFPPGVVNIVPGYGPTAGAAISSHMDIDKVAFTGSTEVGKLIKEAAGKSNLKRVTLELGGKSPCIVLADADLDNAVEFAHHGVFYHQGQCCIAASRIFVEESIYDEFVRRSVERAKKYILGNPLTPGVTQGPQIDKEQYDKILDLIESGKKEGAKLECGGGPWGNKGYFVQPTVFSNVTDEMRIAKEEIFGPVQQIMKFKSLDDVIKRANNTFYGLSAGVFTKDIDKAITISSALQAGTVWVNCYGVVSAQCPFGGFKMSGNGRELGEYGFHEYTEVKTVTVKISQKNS

Row | Compound | Potency
1 | COc1ccc(C(=O)Nc2ccc(C(=O)OCC(=O)c3cccc4ccccc34)cc2)cc1 | inactive
2 | COc1ccc(-c2ccc(CCC(=O)O)o2)cc1 | inconclusive [inhibitor, partial curve]
3 | COc1ccc(-n2c(=O)[nH]cc(C(=O)Nc3ccc4c(c3)OCCO4)c2=O)cc1 | inconclusive [inhibitor, single point]
4 | O=C1NC(c2cc3c(cc2Cl)OCO3)Oc2ccccc21 (stereo not given) | inconclusive [inhibitor, single point]
5 | CCCCCCNC(=O)C(C#N)c1nc2ccccc2nc1N1CCCC1 (stereo not given) | inconclusive [inhibitor, single point]
6 | COC(=O)c1cc(OC)c(OC)cc1NC(=O)c1cccc(OC)c1OC | inconclusive [inhibitor, single point]
7 | Cc1nnc(SCC(=O)c2ccc(Cl)cc2)n(N)c1=O | inconclusive [inhibitor, single point]
8 | CCCS(=O)(=O)N1CCN(C(=O)COc2ccc(-c3ccccc3)cc2)CC1 | inconclusive [inhibitor, single point]
9 | Cc1ccc2[nH]c(=O)cc(C(=O)OC(C)C)c2c1 | inconclusive [inhibitor, partial curve]
10 | Cc1ccc(-c2[nH]nc(N)c2N=Nc2ccccc2C)cc1 | inconclusive [inhibitor, single point]
11 | CCc1c(C(=O)O)[nH]c2ccc(Br)cc12 | inactive
12 | CCOc1ccccc1C(C(=O)NC1CCCC1)N(Cc1ccco1)C(=O)CNC(=O)c1ccco1 (stereo not given) | active: 1.78 µM
13 | CCc1ccc(CCC(=O)Nc2nccs2)o1 | active: 17.8 µM
14 | COC(=O)N/N=C/c1cn(Cc2c(Cl)cccc2Cl)c2ccccc12 | inconclusive [inhibitor, single point]
15 | O=C(c1ccc2c(c1)OCCO2)N1CCN(Cc2ccccc2)CC1 | inconclusive [inhibitor, single point]
16 | CCCSc1nc2c(c(=O)n(C)c(=O)n2C)n1C | inactive
17 | C/C(=N\NC(=O)c1cc(-c2ccc(C)s2)[nH]n1)c1ccco1 | inconclusive [inhibitor, single point]
18 | CS(=O)(=O)N(CC(=O)NCc1ccco1)Cc1ccc(Cl)cc1 | inconclusive [inhibitor, single point]
19 | CCCCn1c(=O)nc2n(-c3ccccc3C)c3ccccc3cc-2c1=O | inconclusive [inhibitor, partial curve]
20 | COc1ccc(C(=O)NC(Oc2ccccc2)C(Cl)(Cl)Cl)cc1 (stereo not given) | inconclusive [inhibitor, single point]
